Measured values taken from the GPR68 mutational scans of Howard et al. (2025).

B1: GPR68, Q15743 (parent)
chain: MGNITADNSSMSCTIDHTIHQTLAPVVYVTVLVVGFPANCLSLYFGYLQIKARNELGVYLCNLTVADLFYICSLPFWLQYVLQHDNWSHGDLSCQVCGILLYENIYISVGFLCCISVDRYLAVAHPFRFHQFRTLKAAVGVSVVIWAKELLTSIYFLMHEEVIEDENQHRVCFEHYPIQAWQRAINYYRFLVGFLFPICLLLASYQGILRAVRRSHGTQKSRKDQIQRLVLSTVVIFLACFLPYHVLLLVRSVWEASCDFAKGVFNAYHFSLLLTSFNCVADPVLYCFVSETTHRDLARLRGACLAFLTCSRTGRAREAYPLGAPEASGKSGAQGEEPELLTKLHPAFQTPNSPGSGGFPTGRLA

Assays:
[1] = variants of: B1; experiment: cAMP reporter score (Enrich2 score, wild type = 0); higher = more signal; HEK293T, FACS bins
[2] = variants of: B1; experiment: surface expression score (Enrich2 score, wild type = 0); higher = more signal; HEK293T, FACS bins

| Variant | cAMP reporter score ([1]; pH 5.5) | cAMP reporter score ([1]; pH 6) | cAMP reporter score ([1]; pH 6, modulator: ogerin) | cAMP reporter score ([1]; pH 6.5, modulator: ogerin) | surface expression score [2] |
| --- | --- | --- | --- | --- | --- |
| T313G | -0.007 | -0.207 | -0.58 | -0.116 | 0.34 |
| T313H | 0.932 |  | 0.482 | 1.53 | 0.921 |
| T313I | 0.077 |  | -0.171 | -0.498 | -0.763 |
| T313K | 0.019 | 0.131 | 0.205 | 0.377 | 0.054 |
| T313L | -0.5 | -1.1 | -0.181 | -0.636 | -0.421 |
| T313M | 0.082 |  | 0.541 | 0.031 | -0.129 |
| T313N | 0.209 | -0.622 | 0.538 | 0.548 | -0.103 |
| T313P | -0.881 |  | -0.176 | -0.692 |  |
| T313Q | 1.05 |  | 0.847 | 1.15 | 0.725 |
| T313R | 0.053 |  | -0.076 | -0.778 | 0.548 |
| T313S | 0.51 | -0.322 | 0.613 | -0.205 | 0.065 |
| T313V | 0.501 | 0.24 | 0.346 | 0.687 | 0.174 |
| T313W | -0.607 | -0.714 | -0.724 | -0.477 | -0.704 |
| T313_G314insG | 1.05 | 1.06 | 0.401 | 0.625 | 1.16 |
| T313_G314insGSG | 0.095 | 0.352 | 0.27 | 0.134 | 0.359 |
| T313del | -0.597 | 0.294 | 0.583 | 0.982 | 0.05 |

| Variant | cAMP reporter score ([1]; pH 5.5) | cAMP reporter score ([1]; pH 6) | cAMP reporter score ([1]; pH 6, modulator: ogerin) | cAMP reporter score ([1]; pH 6.5, modulator: ogerin) | surface expression score [2] |
| --- | --- | --- | --- | --- | --- |
| G314A | 0.898 | -0.03 | 0.856 | 0.208 | 0.31 |
| G314C | 0.957 | 0.223 | 0.864 | 1.15 | 0.521 |
| G314D | 0.278 | 0.079 | 0.121 | 0.407 | 0.908 |
| G314E | 0.84 | 0.712 | 0.807 | 1.04 | 0.626 |
| G314F | 0.438 | -0.209 | 0.476 | -0.022 | -0.383 |
| G314H | 0.669 | -0.525 | 0.953 | 0.009 | 1.45 |
| G314I | 0.191 | 0.754 | 0.932 | 0.442 | 0.635 |
| G314K | -0.692 |  |  | 0.635 | 0.859 |
| G314L | 0.362 | -0.522 | 1.2 | -0.493 | -1.78 |
| G314M | 0.347 | -0.795 | 0.695 | -0.611 | -0.062 |
| G314N | -0.485 | -0.906 | 0.027 | -0.253 | 0.568 |
| G314P | 0.272 | 0.886 | 0.977 | 1.78 | 1.34 |
| G314Q | 0.632 | 1.54 | 1.19 | -0.193 | 0.154 |
| G314R | 0.107 |  | 0.77 | -0.18 | 0.794 |
| G314S | -0.059 | 0.501 | 0.129 | 0.724 | 0.586 |
| G314T | 0.454 | 0.931 | 0.22 | -0.258 | 0.064 |

Scores whose standard error is large were omitted. The source holds two more conditions with little spread; they are left out. Read del as a deletion of the residues named and ins as an insertion between two positions. For part of these data: How much ogerin was present is not stated here.
